Read counts are not given, so values of variants with three or more changes are uncertain.
B1: LINE1-mini (parent)
chain: GGCAGAGCUCAACACAGCGUGGCAAAGUGGCUGUGGCUAGACUGCC

Variants of: B1
Test: self-cleavage, relative activity (ratio to wild type); higher = more cleavage; in vitro, sequencing; the parent is a self-cleaving ribozyme

Variant | self-cleavage
G2C U9A G29C | 0.03
A12U A14U C15A | 0.01
A6G G19U G22C A26G C31U C45G | 0.03
A4C C18A A24C A25G G30U | 0.01
U9C A12G A24U A25C A39C G40A C42G | 0.01
A16C C31U G35C C45A | 0
A6U G7C C10A C42A | 0
G2A C3A A25U U32G G35A A39G | 0.64
C3U A4G C15A C23G G27U G33U G44C C45G | 0.07
G1U G17U G19C | 0.57
A25C G27A U32G G36A | 0.05
C8U A39G A41U | 0.01
G5U U9C C10A | 0.04
G27U G29C U38C | 0.45
C8G A12G U43C | 0.02
C10U G17U G29C C45A | 0.04
A4U A12C C46A | 0.03
G5U G17U C31G | 0.07
G2A G21C U34A | 0.22
A6U C13G U20C A25U U32G A39C | 0.12
A6C A11U C13G G21C C37A | 0.02
A16U G21U G22C C31A G35U | 0.02
A4C A12C C23A U34A | 0.03
G2A G30U G44A | 1.15

Variant | self-cleavage
C3U A6U A14C G40U | 0.18
A4U G40A C45G | 0.07
A4C C13U G36U | 0.09
G7U A14U C15A | 0.19
G22A C23A G33A | 0.48
G2A C3U U20C G27A G36A C37G | 0.19
A4C A11U A25C C46A | 0.01
C23A U28A G40U C45G | 0.14
C3U A26C G33A G36U A41U | 0.09
A16C A24U A41C | 0.09
C10U G17C C45G | 0.15
G19U G21A C31U A39G G44U | 0.15
A4U A14G G27A | 0.05
C15U U38A G40C | 0.16
A14U G19A U20C C42U G44U | 0.06
U32G G40C C42U G44U | 0.04
G17U G29U C46G | 0.77
U9G A12C C45U C46U | 0
U28G U32C U34G C45U | 0.02
A16C G27C G29U | 1.5
C15A G40U U43C | 0.04
G2C A16C G30C G44U | 0.11
G7U C13A G33U | 0.07
G2U A6U U9A G27C G29C | 0.1

Variant | self-cleavage
C13A U20G G22U A26C A39C | 0.06
G5C U20C G40A | 0.05
A11U A14U G17A G36U | 0.02
A16G G21U G35U | 0.06
A4U A11G C13A C46U | 0.05
C3G G33U U43A | 0.09
C3A A4U G7U G19A C23U G29U | 0.04
A4G C8U G21A | 0.02
U28G C42G C45G | 0.03
A12U A16C G17A G30A U34C C42A | 0.04
G17C G22A G36A G40A | 0.15
A4U C15G G30C | 0.02
G1A A16G G21A A25U G29C | 0.69
G2U C15U U32G G40U | 0.03
U9A C13G G40C | 0.07
C18G A26U C31A | 0.05
A6U A11G U43C | 0.03
A14C G19A C45G | 0.04
G1U A12U U43A | 0.04
U20A C31U C37G | 0.03
G7A C18U G21A G30A | 0.08
A6G G7A C8G | 0.15
G19A G22A G27U | 0.08
C15U A16C G33A G36A | 0.35

Variant | self-cleavage
A6C C13U G35C C46A | 0.03
A14C G29A C31G | 0.02
G2U U20A G21U A24G C42U | 0.03
G2A C3G A4G | 0.21
G2A C10U G36U G40C | 0.04
G29U U34C G44U | 0.03
C18U U34A G36U G40C | 0.02
G7C A11G A24C C31A G33U A41G | 0.01
C15G C18A U20C C45A | 0.02
C8U C18U G33A | 0.02
G7A U9C C31G | 0.04
G21U U28G G33C | 0.03
G1A G17C G21A G27C | 1.48
G1C A6C C18U G35A C45A | 0.02
C18U G27C C45A | 0.19
C23U A26U C31G C45U | 0.16
G2U A4C G40A C42U | 0.04
C13U G29C C31U | 0.05
C8G A14C A25C | 0.02
G2U G7A C8A U32A U34A C37G U43A | 0.01
A6C G7C G17A U20A C31A | 0.04
G2A A25G G35U | 1.03
C13G C18G C23U U28A G36U C45U | 0
G5C C10A G19U G29A | 0.01

Variant | self-cleavage
G2A A16G C18A G22C A25C G29U G33U U43C | 0.06
A12G C13U C31A U32G | 0.01
C18G G21U A41U C42G | 0.03
U9C U32G U38A | 0.04
G2U C10A A12U C15U | 0.02
C13U A25C U28C U34G | 0.03
A6U C8G C13U C15G | 0.11
A14C U28A U32G G44A | 0.09
G1A C3G G35C C42A | 0.06
G19U G22C U28A | 0.38
U38C A39G G44U | 0.04
G5A A6G G21U | 0.03
A4G G27A C31U U34G | 0.03
G5C U9G A11U A12U C42A | 0
A14U G21A C23A U43A C46A | 0.03
A16U G35U G40A | 0.05
G5C U38A A39U | 0.12
A25C G27A C37U | 0.08
C10A G40A A41U | 0.01
U34G G40C C46U | 0.01
C13G G17U C18U G35U | 0.04
G1C C15G G17U A24C | 0.02
A14C G30C C46A | 0.09
C3A A4G C8G G36U A39G | 0.01

Variant | self-cleavage
A12U G29C G35U U38G | 0.01
G1C C3U G5U U9A C10U C23A A26C G44U | 0.02
G2A G7U C13G G30U G40U | 0.02
C18U U20A G29U U32C | 0.05
A11G G33C C37A | 0.01
G19A U43G G44A | 0
G5C U9A A11U | 0.03
G2A C15U G22U C31A | 0.09
A4G C23G G29A | 0.27
A26G C31U C42U | 0.44
C10A A12C C15G G22A G27C | 0.02
C10G G19U G21U | 0.03
C8U G17U G36U C42G | 0.09
C15A G17A G19U U20A G22C | 0.1
C3A G29A G40C | 0.05
C8U G19C G21A C45A | 0.07
G7U C13U C15G A24U G36U | 0.09
C10G G35A G40U U43G | 0
C3U C10A A26C G40U G44C | 0.02
G33U G40A C45A | 0.04
A12G A14C G36A C45U | 0.01
C8U G21A C31U | 0.3
A6U C13U G44U | 0.16
G17U A26G G29U | 0.81

Variant | self-cleavage
C10G A14G A16G A26C G29U G36U | 0.01
G5U U9A U28C G33U | 0.2
C10U C13G G21C A25C G33C G44U | 0.01
U20G A24G G30U U32C G44A | 0.05
C13A C18A G21A G40C | 0.02
G7C G22A G44C | 0.13
C3A G5C G21U | 1.46
A6C C8A A26U C31G | 0.12
G7C C13A G33U G35A | 0.02
G1C U20G G21A G36U | 0.01
C15A G35A C46A | 0.02
C10A A24G U28A C31G U38C | 0.03
C8A G19C A25C | 0.09
G1A C18G G19A G44C | 0.05
C3U G5A U32A G33C G40U | 0.1
C23U A26U G40U | 0.02
G1C A12U G17U G30C | 0.04
G7A G17A G21C | 0.42
G1C G5A G27U A41C | 0.04
G19C U20G G40A | 0.02
C15U G35U C46A | 0.04
G5C G17A U34C | 0.07
C15A G17C C45U C46A | 0.04

Source: the RNAGym collection of RNA variant scans (doi:10.7554/elife.90254)
